From PubChem BioAssay AID1745853 (National Center for Advancing Translational Sciences (NCATS), 2022) come the findings set out here.

What all share (assay): Primary Screen for Target Class Profiling of Small Molecule Inhibitors of Methyltransferases
Experiment [1] addresses Glycine N-methyltransferase (Homo sapiens) (UniProt Q14749). Conditions: purified enzyme, MTase-Glo SAH luminescence; measured here: GNMT inhibition; at 40 µM; stronger effect = lower value. In short, it runs like this:
(§1)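 Each enzyme was reacted with SAM and its substrate, with compounds tested once at 40 uM; SAH formed was read by MTase-Glo luminescence.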

For experiment [2], the target named is Guanidinoacetate N-methyltransferase (Homo sapiens) (UniProt Q14353). Conditions: purified enzyme, MTase-Glo SAH luminescence; measured here: GAMT inhibition; at 40 µM; stronger effect = lower value. The procedure, abridged:
as §1

The target in experiment [3] is Histamine N-methyltransferase (Homo sapiens) (UniProt P50135). Particulars: purified enzyme, MTase-Glo SAH luminescence; measured here: HNMT inhibition; at 40 µM; stronger effect = lower value. In short, it runs like this:
as §1

Experiment [4] deals with Nicotinamide N-methyltransferase (Homo sapiens) (UniProt P40261). Particulars: purified enzyme, MTase-Glo SAH luminescence; measured here: NNMT inhibition; at 40 µM; stronger effect = lower value. The procedure, abridged:
as §1

For experiment [5], the target named is Phenylethanolamine N-methyltransferase (Homo sapiens) (UniProt P11086). Particulars: purified enzyme, MTase-Glo SAH luminescence; measured here: PNMT inhibition; at 40 µM; stronger effect = lower value. The procedure, abridged: as §1

Structures are written as SMILES. The list shows a part of the results. Shown are side measurements of this screen, not its main read-out; they come without a call.
On the % scale 0 is the no-effect control and ±100 the full control effect.

With `CC(C)N1C[C@@H](COCc2ccccc2)[C@H](c2ccccc2)[S+]1(=O)[O-]`, the activity change, negative = inhibition in experiment [1] was -6.29%; in experiment [2] it was -5.36%; in experiment [3] it was -3.3%; in experiment [4] it was -14.2%; in experiment [5], -7.17%.
For the molecule `COCCN(CCOC)C(=O)[C@@H](C)C1CC[C@@]2(C)CC[C@H](NC(=O)c3cncnc3)[C@@H](C)[C@@H]2[C@H]1O` (stereo not given in full), the activity change, negative = inhibition in experiment [1] is -1.55%; in experiment [2] it was -1.38%; in experiment [3] it was -0.9%; in experiment [4] it was -0.786%; in experiment [5] it was 3%.
Consider `CN(C)CCOC(C)(c1ccccc1)c1ccc(Cl)cc1` (stereo not given), for which the activity change, negative = inhibition is -12.1% in experiment [1]; -2.54% in experiment [2]; -60.4% in experiment [3]; -35.8% in experiment [4]; -10.9% in experiment [5].
In the same order, the values of `COCCn1ccc2ccc(C(=O)Nc3ccc4c(c3)C(=O)N3CCC[C@H]3C(=O)N4)cc21` are -12.7%, -2.17%, -4.06%, -9.16% and -11.2%.
As to `CCc1cc2c(cc1CC)CC(NCC(O)c1ccc(O)c3[nH]c(=O)ccc13)C2` (stereo not given), the activity change, negative = inhibition in experiment [1] is 1.86%; in experiment [2] it was 19.6%; in experiment [3], -4.1%; in experiment [4] it was -34.8%; in experiment [5], -0.591%.
Turning to `C[C@@]1(C(=O)O)CCC[C@@]2(C)C3=CC[C@H]4C[C@@]3(CC[C@H]12)CC4(O)CO` (stereo not given in full), the activity change, negative = inhibition in experiment [1] is 0%; in experiment [2], 6.01%; in experiment [3], 7.96%; in experiment [4] it was -7.89%; in experiment [5], 6.96%.
As to `C/C(=C\c1ccc(C(=O)O)cc1)c1ccc2c(c1)C(C)(C)CCC2(C)C`, the activity change, negative = inhibition is -1.57% in experiment [1]; 5.2% in experiment [2]; 0.857% in experiment [3]; -11.5% in experiment [4]; 5.07% in experiment [5].
With `CN(C)C1CCCN(C(=O)c2csc3c2CCCC3)CC1` (stereo not given), the activity change, negative = inhibition was -1.42% in experiment [1]; -2.52% in experiment [2]; 0.082% in experiment [3]; -3.59% in experiment [4]; -13.3% in experiment [5].
Turning to `COC1CC(=O)C23C(=O)NC(CC(C)C)C2C(C)C(C)=CC3/C=C(\C)CCCC1O` (stereo not given), the activity change, negative = inhibition in experiment [1] was 0%; in experiment [2], -10.2%; in experiment [3], -1.2%; in experiment [4], -21.6%; in experiment [5] it was -2.06%.
In the same order, the values of `CC1(C(=O)NC2CCCCCCC2)Cc2ccccc2C(=O)N1Cc1cccs1` (stereo not given) are -5.63%, 3.86%, 2.45%, -11.7% and -5.57%.
Regarding `O=c1c2ccccc2n2c(=O)n(Cc3ccc(F)cc3Cl)nc2n1CCc1ccccc1`, the activity change, negative = inhibition in experiment [1] was found to be 1.59%; in experiment [2], 0%; in experiment [3], 9.69%; in experiment [4], 5.1%; in experiment [5], 3.1%.
With `CN(C)CCNC(=O)c1ccc(-c2nnc3ccc(NC(=O)C4CCC4)cn23)cc1`, the activity change, negative = inhibition in experiment [1] was -5.26%; in experiment [2], -8.68%; in experiment [3] it was -5.74%; in experiment [4], -10.6%; in experiment [5] it was -10.8%.
`COc1cccc(C(=O)N[C@H]2[C@H](O)[C@H](O)C[C@@H]2c2cccnc2)c1`: the activity change, negative = inhibition in experiment [1] was -1.27%; in experiment [2] it was 4.65%; in experiment [3], 1.14%; in experiment [4], 4.54%; in experiment [5] it was 17.7%.
Regarding `CC(C)CCn1c(=O)c2ccccc2n2c(CCC(=O)NCc3ccccc3)nnc12`, the activity change, negative = inhibition is -7.85% in experiment [1]; 1.52% in experiment [2]; 6.44% in experiment [3]; -1.95% in experiment [4]; 2.43% in experiment [5].
As for `CCc1ccc(CN2C(=O)c3nc4ccccc4n3CC2(C)C(=O)NCc2ccccc2)cc1` (stereo not given), the activity change, negative = inhibition in experiment [1] worked out at 3.79%; in experiment [2], 1.51%; in experiment [3], 8.06%; in experiment [4], 9.98%; in experiment [5], 4.62%.
In the case of `Cc1ccccc1Cn1nc2n(C(C)C)c(=O)c3ccc(C(=O)NC(C)C)cc3n2c1=O`, the activity change, negative = inhibition in experiment [1] is 2.32%; in experiment [2], 1.01%; in experiment [3], 12.1%; in experiment [4] it was -3.23%; in experiment [5], 5.18%.
Consider `CCc1ccccc1NC(=O)Cn1nc2n(CCC(C)C)c(=O)c3ccc(C(=O)NC(C)C)cc3n2c1=O`, for which the activity change, negative = inhibition in experiment [1] was 4.08%; in experiment [2] it was 0%; in experiment [3], 4.88%; in experiment [4], 3.12%; in experiment [5] it was 4.19%.
In the same order, the values of `Cc1ccc2nc(NC(=O)CSc3nc4c(c(=O)n3-c3ccc(F)cc3)SCC4)sc2c1` are -5%, -0.828%, 5.76%, -3.68% and 2.88%.
The corresponding values for `CC1CCCC(NC(=O)C2(C)Cn3c(cc4sccc43)C(=O)N2Cc2ccccc2)C1C` (stereo not given) are -6.22%, 1.19%, -4.1%, -1.79% and -3.4%.
For `CCCN1C(=O)c2c(C(=O)NCc3ccc(OC(C)C)cc3)ncn2CC1(C)C(=O)NCc1ccc(OC)cc1` (stereo not given), the activity change, negative = inhibition in experiment [1] is -0.104%; in experiment [2], 3.52%; in experiment [3], -5.8%; in experiment [4], 2.18%; in experiment [5], 2.13%.
For `CCCCNc1c(C(=O)OCC)c(C)nc2c1cnn2CC`, the activity change, negative = inhibition is -10.6% in experiment [1]; -1.83% in experiment [2]; -6.49% in experiment [3]; -25.1% in experiment [4]; -5.02% in experiment [5].
For `O=S(=O)(NCCn1c(CCc2ccccc2)nc2ccccc21)c1ccc(Br)cc1`, the activity change, negative = inhibition was -1.86% in experiment [1]; 0% in experiment [2]; -1.11% in experiment [3]; -10.7% in experiment [4]; 2.24% in experiment [5].
As to `C[C@@H]1CC[C@]2(C(=O)O[C@@H]3O[C@H](CO)[C@@H](O)[C@H](O)[C@H]3O)CC[C@]3(C)C(=CCC4[C@@]5(C)C[C@@H](O)[C@H](O)[C@@](C)(C(=O)O[C@H]6[C@H](O)C[C@@]7(C)C(CC[C@]8(C)C7CC=C7[C@H]9[C@](C(=O)O[C@@H]%10O[C@H](CO)[C@@H](O)[C@H](O)[C@H]%10O)(CC[C@@H](C)[C@@]9(C)O)CC[C@]78C)[C@@]6(CO)C(=O)O)C5CC[C@]43C)[C@@H]2[C@]1(C)O` (stereo not given in full), the activity change, negative = inhibition in experiment [1] is -3.84%; in experiment [2], 7.09%; in experiment [3] it was 3.71%; in experiment [4], -6.3%; in experiment [5], 9.85%.
As to `COc1cccc(-c2ccc(CN3CCCC(N[S+](=O)([O-])c4ccc(C)cc4)C3)cc2)c1` (stereo not given), the activity change, negative = inhibition in experiment [1] was -0.468%; in experiment [2], -0.451%; in experiment [3], 0.749%; in experiment [4] it was -4.28%; in experiment [5] it was -0.462%.
With `O=S(=O)(NCc1ccccc1Cl)c1ccc2[nH]c3c(c2c1)CCCC3`, the activity change, negative = inhibition was -8.34% in experiment [1]; -2.29% in experiment [2]; -5.85% in experiment [3]; -13.9% in experiment [4]; -2.89% in experiment [5].
Consider `CCN(Cc1ccncc1)C(=O)CC1C(=O)NCCN1CCc1ccccc1` (stereo not given), for which the activity change, negative = inhibition in experiment [1] is -3.75%; in experiment [2], 3.23%; in experiment [3], -38.1%; in experiment [4], -2.11%; in experiment [5] it was 7.92%.
On to `COCCOc1cc2ncnc(Cl)c2cc1OCCOC`, for which the activity change, negative = inhibition in experiment [1] is 3.63%; in experiment [2] it was 9.95%; in experiment [3] it was 3.94%; in experiment [4] it was -0.075%; in experiment [5], 7.41%.
As for `CCCn1c(=O)c2ccc(C(=O)NC3CCCC3)cc2n2c(=O)n(Cc3ccccc3F)nc12`, the activity change, negative = inhibition is -4.34% in experiment [1]; 3.3% in experiment [2]; -3.8% in experiment [3]; -10.6% in experiment [4]; -4.89% in experiment [5].
